Results from PubChem BioAssay AID1508642 (National Center for Advancing Translational Sciences (NCATS), 2021).
Among all 43,000 compounds or so, about 200 (0.47%) were called active. Another 12% or so got no clear call; they are omitted. The call rests on the fitted dose curve; in most records, active means well fitted cell-killing curve with a large enough effect; inconclusive means small, poorly fitted or top-dose-only effect, or effect the other way; inactive means flat fitted curve, though single readings scatter. The list shows a part of the results.

Assay: Cell viability qHTS assay in S16 Pmp22-F2sN cells; further: nearly all actives have a fitted effect of over 65% in size
Conditions: S16 Pmp22-F2sN Schwann cells viability, CellTiter-Glo, 24 h; series mostly up to 57.5 µM; activity change, negative = cytotoxicity: at the top concentration
Outline: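 S16 Pmp22-F2sN Schwann cells (500-1,000/well) in phenol-red-free DMEM with 10% FBS received 23 nL compound by pin tool for 24 h at 37 °C. Viability was then read as CellTiter-Glo luminescence after 15 min at room temperature.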
On the % scale 0 is the no-effect control and ±100 the full control effect.

SMILES	activity change, negative = cytotoxicity
CCCc1nc2sc3c(N4CCCCC4)ncnc3c2c2c1CCCC2	inactive: -3.77%
COc1ccc(OC)c(NC(=O)Cn2cc(S(=O)(=O)c3ccccc3)c(=O)c3cc(C)ccc32)c1	inactive: 2.61%
Cc1ccc(CCNC(=O)CCn2c(=O)c3cccn3c3ccc(F)cc32)cc1	inactive: -5.33%
CN(C)c1ccc(CNC(=O)CCCN2C(=O)CCn3nc(-c4cccn4C)cc32)cc1	inactive: -2.98%
CCN(CCCNC(=O)c1nn(-c2ccc(C)cc2)c(=O)c2c1c1ccccc1n2C)c1ccccc1	inactive: 1.52%
Cc1ccc(C)c(N2CCN(C(=O)CCCn3ncn4c(cc5occc54)c3=O)CC2)c1	inactive: -16.8%
COc1cccc(CNC(=O)CCS(=O)(=O)c2cc3c(cc2C)NC(=O)CO3)c1	inactive: 2.63%
CCOc1ccc(CNC(=O)CCn2nc(C)c3c(C)n(-c4ccccc4)nc3c2=O)cc1	inactive: -12.5%
CCc1ccc(-n2c(=O)c3c(C)c(C(=O)N(C)C)sc3n(Cc3cccc(C)c3)c2=O)cc1	inactive: 2.38%
COc1ccccc1OCCCn1c(C2CC(=O)N(c3ccccc3Cl)C2)nc2ccccc21 (stereo not drawn)	inactive: -11.8%
COc1ccc(C(=O)Nc2ccc3nc(SCc4ccc(C)cc4)sc3c2)cc1	inactive: 0.498%
Cc1ccc(-n2c(=O)c3c4c(sc3n(Cc3ccccc3F)c2=O)CCC4)cc1C	inactive: -0.199%
Cc1nc(-c2ccc(Cl)cc2)sc1CCNC(=O)c1ccco1	inactive: -13%
Cc1ccc(O)c(-c2ccnc3cc(-c4ccc(Cl)cc4)nn23)c1	inactive: 9.32%
COc1cc(-c2nc3sccn3c2Nc2cccc(C)c2)ccc1O	inactive: -13.3%
Cc1coc2cc3oc(=O)c(CC(=O)NCc4ccc(F)cc4)c(C)c3cc12	inactive: -9.67%
Oc1ccccc1-c1nc(/C=C/c2ccccc2Cl)no1	inactive: -2.05%
CCc1ccc(-n2c(=O)c3ccc(C(=O)NCCc4ccccc4)cc3n(CC(N)=O)c2=O)cc1	inactive: -1%
CCCCOc1ccc(C(=O)NCC2(N3CCN(C)CC3)CCCCC2)cc1	inactive: -13%
CCS(=O)(=O)N1CCc2cc(C(=O)Nc3ccc(C)c(Cl)c3)ccc21	inactive: 22.5%
O=C(Nc1nnc(S(=O)(=O)N2CCOCC2)s1)c1cccc(F)c1	inactive: -1.86%
COc1ccc(Cn2cc(C(=O)c3ccc(OC)cc3)c(=O)c3cc4c(cc32)OCCO4)cc1	inactive: 5.8%
COc1ccc(OC)c(NC(=O)c2cn3c4c(ccc(Cl)c4c2=O)OC(C)C3)c1 (stereo not drawn)	inactive: 4.16%
CC(=O)c1cccc(NC(=O)C(Cc2ccccc2)NS(=O)(=O)c2ccc(Br)s2)c1 (stereo not drawn)	inactive: -6.71%

SMILES	activity change, negative = cytotoxicity
O=C(Nc1ccc(Cl)cc1)N1CCC(CN2CCCC2)CC1	inactive: 11%
Cc1cccc(CCNC(=O)Cn2ncc3c(=O)oc4ccccc4c32)c1	inactive: -0.685%
Cc1c2cnn(-c3ccccc3)c(=O)c2c(C)n1CC(=O)NCc1ccccc1Br	inactive: 14.5%
Cc1ccc2c(c1)C(c1ccccc1)N(C(=O)c1ccc(OC(C)C)cc1)CC(=O)N2 (stereo not drawn)	inactive: -0.545%
Nc1c(C(=O)Nc2ccc(Cl)c(C(F)(F)F)c2)sc2nc(-c3ccncc3)ccc12	inactive: 1.37%
COc1ccc(CC(=O)NCc2ccc3c(c2)CCN3C(C)=O)cc1OC	inactive: 5.4%
CCN(CC)S(=O)(=O)c1ccc2c(c1)c(=O)c(C(=O)NCc1ccc(Cl)cc1)cn2C	inactive: -9.85%
CCOC(=O)C1CCN(C(=O)c2ccc3c(c2)sc2nc(-c4ccccc4)cn23)CC1	inactive: 0.42%
COc1cccc(CNC(=O)C2Cc3cc(S(=O)(=O)N4CCCCCC4)ccc3N2C(C)=O)c1 (stereo not drawn)	inactive: -0.965%
Cn1nc(C(=O)N2CCN(c3cccc(Cl)c3)CC2)c2c1-c1ccccc1S(=O)(=O)C2	inactive: 3.74%
CCc1cc2c(cc3c(=O)n(CC(=O)N4CCC(C)CC4)nc(CC)n32)s1	inactive: -18%
COc1ccc(C(=O)COC(=O)c2cc(-c3ccccc3)nc3c(C)cccc23)cc1	inactive: -7.73%
O=C1CCc2cc(S(=O)(=O)NCc3ccc(F)cc3)cc3c2N1CC3	inactive: -26.1%
Cc1nc2c(-c3ccccc3)c(C)nn2c(C)c1CCC(=O)N1CCN(c2ccccc2)CC1	inactive: 9.68%
CCC(=O)N1CCc2cc(Br)cc(S(=O)(=O)N3CCCC(C(=O)NCc4cccc(OC)c4)C3)c21 (stereo not drawn)	inactive: 18.4%
CN1C(=O)Cc2cc(S(=O)(=O)CCC(=O)Nc3cccc(C(F)(F)F)c3)ccc21	inactive: -11.3%
CC(C)OCCCn1c(SCc2cccc(Br)c2)nc2c(sc3ccccc32)c1=O	inactive: -2.49%
COc1ccc2c(Sc3ccccc3)c(C(=O)NCc3cccc(OC)c3OC)[nH]c2c1	inactive: 4.69%
CCOC(=O)c1cc(S(=O)(=O)Nc2ccc(OC)c(Cl)c2)[nH]n1	inactive: -5.1%
CCOC(=O)C1(C)C=C(Nc2ccc(C(N)=O)cc2)C(=O)N1c1ccccc1 (stereo not drawn)	inactive: 0.0478%
COc1ccccc1Oc1nc2c(c(=O)n(C)c(=O)n2C)n1Cc1cccc(Br)c1	inactive: 0.296%
COCCNC(=O)c1ccc2c(c1)N(Cc1cccc(Cl)c1)C(=O)c1ccccc1S2(=O)=O	inactive: -8.03%
Cc1ccc(OC(=O)c2cc(-c3ccccc3)nc3ccc(C)cc23)cc1	inactive: -2.57%
CC(=O)N1c2ccc(S(=O)(=O)NCC3CCC(C(=O)NCCC(C)C)CC3)cc2CC1C (stereo not drawn)	inactive: -27.1%
